Reference: PubChem BioAssay AID488969 (Vanderbilt High Throughput Screening Facility, 2010)
In all, about 110,000 compounds were measured (“z-score”: median about -0.1, highest 2% from about 2 on). Some of the results follow. Activity calls are given as the source filed them.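 The calls were made as follows: active = z-score in the third read window above 3 or below -3; inactive = the rest.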

Each compound was assayed against Metabotropic glutamate receptor 8 (Rattus norvegicus) (UniProt P70579) (assay: rat mGluR8 modulators via GIRK flux, primary screen, cell-based, thallium flux, HTS (AID 488969)). Conditions: HEK293 rat mGluR8, GIRK (G protein-gated inwardly rectifying potassium channel) thallium flux, FluoZin2; at 10 µM; stronger effect = higher value; submaximal glutamate (EC20) added with thallium.
Chain of UniProt P70579 (P70579 whole entry, looked up): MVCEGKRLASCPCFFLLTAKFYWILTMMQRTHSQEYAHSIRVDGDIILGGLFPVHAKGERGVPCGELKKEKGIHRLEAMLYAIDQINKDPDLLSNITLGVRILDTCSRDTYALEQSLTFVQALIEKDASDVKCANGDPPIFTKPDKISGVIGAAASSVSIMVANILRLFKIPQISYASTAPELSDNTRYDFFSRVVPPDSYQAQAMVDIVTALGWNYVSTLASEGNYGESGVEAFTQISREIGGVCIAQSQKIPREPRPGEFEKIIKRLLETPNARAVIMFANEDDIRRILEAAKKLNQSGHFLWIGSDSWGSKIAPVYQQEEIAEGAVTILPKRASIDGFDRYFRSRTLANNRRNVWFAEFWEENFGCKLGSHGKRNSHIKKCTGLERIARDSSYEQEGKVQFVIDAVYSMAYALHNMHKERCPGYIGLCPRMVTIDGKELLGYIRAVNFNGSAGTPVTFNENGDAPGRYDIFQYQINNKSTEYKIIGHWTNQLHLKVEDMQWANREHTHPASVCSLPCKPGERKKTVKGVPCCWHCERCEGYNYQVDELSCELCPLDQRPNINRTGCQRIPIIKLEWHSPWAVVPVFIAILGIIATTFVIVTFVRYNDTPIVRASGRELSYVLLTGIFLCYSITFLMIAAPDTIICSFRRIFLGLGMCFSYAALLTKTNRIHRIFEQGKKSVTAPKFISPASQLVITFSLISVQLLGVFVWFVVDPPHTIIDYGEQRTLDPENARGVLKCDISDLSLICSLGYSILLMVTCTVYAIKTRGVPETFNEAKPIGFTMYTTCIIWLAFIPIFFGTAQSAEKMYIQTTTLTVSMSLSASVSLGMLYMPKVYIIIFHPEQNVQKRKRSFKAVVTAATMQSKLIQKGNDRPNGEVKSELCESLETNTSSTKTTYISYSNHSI

Structure (SMILES)	z-score
C=CCn1c(SCn2nnc3ccccc3c2=O)nc2scc(-c3cccs3)c2c1=O	0.0506
CC(=O)c1ccc(NC(=O)CN2C(=O)/C(=C/C(C)=C/c3ccccc3)SC2=S)cc1	-0.0841
C=CCOc1c(Br)cc(CNc2ccc(NC(=O)CCC)cc2)cc1OCC	0.0144
Cc1cccc(N2CCN(c3nnnn3-c3ccccc3)CC2C)c1 (stereo not drawn)	-0.672
Cc1ccc(S(=O)(=O)N(C)c2cc(S(=O)(=O)Nc3ccncc3)c(C)cc2C)cc1	-0.123
O=c1[nH]c(CN2CCN(C/C=C/c3ccccc3)CC2)nc2ccccc12	-0.00682
CCn1nc(NC(=O)c2ccncc2)c2cc3cc(C)ccc3nc21	-0.348
Cc1cccc(C(=O)NNC(=O)c2ccccc2)c1	-0.0133
COc1cccc(-c2cc(C(=O)NC3CCCC3)no2)c1	active: 5.04
COc1ccc(C(=O)NC2CCN(S(=O)(=O)Cc3ccccc3)CC2)c(OC)c1	-0.901
CS(=O)c1ccccc1COC(=O)Nc1cccc(Cl)c1 (stereo not drawn)	0.588
CC(=O)CSc1nnc(-c2ccc(S(=O)(=O)N3CCC(C)CC3)cc2)o1	-0.043
CCOc1cc2c(cc1OCC)C(C(=O)O)C(c1cc(OC)c(OC)c(OC)c1)N(C)C2=O (stereo not drawn)	-0.0232
COc1cccc(C2C(C(=O)Nc3nc4ccccc4s3)=C(C)NC3=C2C(=O)CC(C)(C)C3)c1OC (stereo not drawn)	-0.465
COc1ccc(CNC(=O)c2c(O)c3cccc4c3n(c2=O)CCC4)cc1	-0.554
CCC1Sc2ccccc2N(CC(=O)NCCC2=CCCCC2)C1=O (stereo not drawn)	-0.0914
CCCn1c(N2CCN(CC(=O)NCc3cccs3)CC2)nc2ccccc21	-0.152
Cc1ccc(-c2cn3c(=O)cc(C)[nH]c3n2)cc1	0.529
CCN(CC)CC(=O)Nc1ccc2c(c1)N(C(=O)CN(CC)CC)c1ccccc1CC2	-0.342
O=C(CSc1ncnc2c1cnn2-c1ccc(Cl)cc1)NCc1ccc2c(c1)OCO2	active: 3.12
COc1ccc(-n2ncc3c(N4CCN(c5cc(C)ccc5C)CC4)ncnc32)cc1	-0.284
Cc1ccc(C)c(NC(=O)CSc2nnc(-c3ccncc3)n2N)c1	-0.406

Structure (SMILES)	z-score
O=C(NCCc1ccccc1)C1CCCN1C(=O)NCc1ccccc1 (stereo not drawn)	-0.304
O=C(C1=C[C@@H]2[C@H]3C(=O)N(c4ccccc4)C(=O)[C@H]3[C@@H](C(=O)c3ccc(Cl)cc3)N2C=C1)c1ccccc1	-0.0992
CC(Cn1cnc2ccccc21)C(=O)O (stereo not drawn)	0.193
Cc1ccc(NC(=O)c2cc3c(s2)CCCC3)cc1S(=O)(=O)Nc1ccccc1Cl	-0.228
CCOC(=O)COc1ccc2nsnc2c1	0.229
O=C1N/C(=C\c2ccc(N3CCOCC3)c(F)c2)C(=O)N1Cc1ccccc1	-0.434
Cc1cccc(NC(=S)NC(=O)/C=C/c2ccco2)n1	0.626
O=C(Nc1ccccc1)/C(=C/c1cccc(Br)c1)NC(=O)c1ccco1	-0.229
CN(C(=O)c1ccco1)c1nnc(C23CC4CC(CC(C4)C2)C3)s1	-0.39
CC(C)(C)C(=O)NCCn1ccc2ccccc21	1.13
O=C(c1ccco1)N1CCN(c2nc3ccccc3c(=O)n2-c2ccccc2)CC1	-0.455
Cc1cc(NC(=O)CN2CCN(c3ccc(O)cc3)CC2)no1	-0.0506
CCN(CC)C(=O)c1ccc(C(=O)c2c(C)cc(C)cc2C)cc1	-0.267
Nc1ccc(-n2c(N)c(C(=O)NCc3ccc4c(c3)OCO4)c3nc4ccccc4nc32)cc1	1.52
CC(=O)c1ccc(OCCCC(=O)NC2CCCc3ccccc32)cc1 (stereo not drawn)	-0.701
COc1ccc(CNC(=O)c2cccs2)cc1	0.0587
N#C/C(=C\c1ccc(N2CCOCC2)o1)c1nc2ccccc2[nH]1	-1.83
CC(O)C(O)C(O)C(O)C1NCCS1 (stereo not drawn)	-0.129
CCCCCCCCN1C(=O)N(C)C(N(O)C(=O)NC)C1(C)C (stereo not drawn)	0.0757
COc1ccccc1NS(=O)(=O)c1cccc(C(=O)N/N=C/c2ccc3c(c2)OCCO3)c1	-0.485
C=CCn1c(=O)c(C(=O)Nc2ccccc2C(=O)OCC)c(O)c2ccccc21	-0.951
CCC(=O)Nc1ccnc(-c2cccnc2)n1	-0.434

Structure (SMILES)	z-score
O=S(=O)(Nc1ccc2ccccc2c1)c1ccccc1	-0.825
CC(C)CCNC(=O)c1cccnc1Sc1ccccc1	-0.0729
CCOC(=O)/C(=C/c1ccc(F)cc1)NC(C)=O	-0.159
Cc1ccc(-c2nn(CC(=O)NCc3cc(-c4nn(C)c(=O)c5ccccc45)ccc3C)c(=O)c3ccccc23)cc1	0.00878
Cc1ccc(C(=O)NCc2ccc(Cl)c(Cl)c2)o1	0.434
COc1ccc(CN=Cc2[nH]c3ccc(Br)c(Cl)c3c2O)cc1	0.105
COc1ccc(CCNC2CC(=O)N(CCc3ccc(OC)c(OC)c3)C2=O)cc1OC (stereo not drawn)	-0.18
COC(=O)c1ccc(CSc2n[nH]c(C)n2)o1	-0.0591
N#CC(c1cccc(C(F)(F)F)c1)(c1ncc(C(F)(F)F)cc1Cl)N1CCOCC1 (stereo not drawn)	-0.234
COc1ccc(N2CCN(C(=O)Cc3ncc(C(F)(F)F)cc3Cl)CC2)cc1	-0.362
Cc1cc(C(=O)O)c(S(C)(=O)=O)s1	-0.174
COc1ccc2c(c1OC)C(=O)NC(C)=C(C(=O)OC(C)(C)C)C2O (stereo not drawn)	-0.738
NC(=O)CC[C@H](NC(=O)c1ccc(F)cc1)C(=O)OCC(=O)Nc1c(F)c(F)c(F)c(F)c1F	0.134
Cn1c(=O)n(C)c2cc([N+](=O)[O-])c(N3CCN(S(C)(=O)=O)CC3)cc21	0.0226
CC1CCN(Cc2nc3c(c(=O)n(C)c(=O)n3C)n2CCc2ccccc2)CC1	-0.572
Brc1cnc(N2CCOCC2)nc1N1CCCCC1	0.298
Cc1ccc2[nH]c3c(N4CCN(Cc5ccc6c(c5)OCO6)CC4)ncnc3c2c1	-0.43
CCOc1ccccc1N1CCN(C(=O)c2cc[n+]([O-])cc2)CC1	1.47
Cc1ccc(CNc2oc(-c3cccs3)nc2C#N)cc1	0.993
Cc1ccc(CSc2nc3c(c(=O)[nH]2)C(c2ccncc2)C2=C(CCCC2=O)N3)cc1 (stereo not drawn)	-0.78
COc1ccc(-c2[nH]nc(-c3ccccc3)c2-c2nc3ccccc3[nH]2)cc1	-0.16
Cc1cc(OCCCCN2C(=O)NC(C)(C)C2=O)cc(C)c1Cl	0.0491

Structure (SMILES)	z-score
c1ccc(Sc2ncnc3c2oc2ccccc23)cc1	-0.124
CCC(Sc1ccccn1)C(=O)Nc1nnc(C)s1 (stereo not drawn)	-0.138
O=C(COC(=O)/C=C/c1nc2ccccc2s1)Nc1ccccc1Oc1ccccc1	-0.284
CNC(=S)N1N=C(c2ccc(OC)cc2)CC1c1ccc(N(C)C)cc1 (stereo not drawn)	-0.218
COc1ccccc1/C=c1\sc2nc(-c3cccs3)nn2c1=O	-0.262
COCCn1c(CN2CCC(Cc3ccccc3)CC2)nc2c1c(=O)n(C)c(=O)n2C	-0.501
CCCCCCCSc1nsc(N)n1	0.546
O=C(NNc1c2ccccc2nc2ccccc12)c1cc2ccccc2cc1O	-0.234
Cc1nnc(-c2cnn(-c3ccccc3)c2N)n1Cc1ccc(F)cc1	0.321
O=C(c1ccccc1NS(=O)(=O)c1ccc2c(c1)OCCO2)N1CCOCC1	-0.152
O=C1NC(Cc2c[nH]c3ccccc23)C(=O)N1c1ccc(F)cc1 (stereo not drawn)	0.0143
Cc1ccc(S(=O)(=O)/N=C(/Nc2c(C)n(C)n(-c3ccccc3)c2=O)c2ccccc2)cc1	-0.00392
Cn1c(N)c(C(=O)c2ccc(C#N)cc2)c(=O)n(C)c1=O	-0.206
CC(C)CC(=O)NC(=S)NCc1ccccc1	-0.128
Cc1cc(C)cc(Oc2nc(C(F)(F)F)nc3ccccc23)c1	-0.181
COc1cccc(Nc2ncccc2C(=O)NCc2ccccc2)c1	-0.256
CCOC(=O)c1c(C)nc2c(c1C)c(=O)oc1ccccc12	-0.393
COc1cccc(OC)c1OCCCCN1CCCC1	-0.52
COc1ccc(CN=CC2=C(O)CNC2=O)cc1OC	0.0947
CC(C)(C)c1nc(SCC(=O)Nc2nc3c(s2)CCCC3)c2ccccc2n1	-0.185
COc1cc(OC)cc(C(=O)N2CCN(C(=O)c3cccc(F)c3)CC2)c1	-0.152
O=C(CCCCCn1c(=S)[nH]c2ccccc2c1=O)N1CCOCC1	-0.155

Structure (SMILES)	z-score
N#Cc1c(-n2cccc2/C=N/O)sc2c1CCCC2	-0.27
CCOC(=O)N1CCC(NC(=O)CCC(=O)N2CC(C)Oc3ccccc32)CC1 (stereo not drawn)	-0.00303
CCCCNC(=O)CSc1nc2ccc(NC(=O)CSc3nnc(N)s3)cc2s1	-0.425
CC(C)(C)C(=O)NNc1nc(-c2ccccc2)c2cc(Br)ccc2n1	0.475
Cc1cccc(N2CCN(C(=O)c3ccc(Cl)c(S(=O)(=O)NCc4ccco4)c3)CC2)c1C	-0.0125
Cn1c(=O)[nH]c(=O)c2c1nc(N1CCN(c3ccccc3)CC1)n2CCSc1ncccn1	0.0511
COc1cc(C(=O)OCC(=O)c2c[nH]c3ccccc23)ccc1OCC(=O)N1CCOCC1	0.0746
Nn1c(COc2ccccc2)nnc1SC(F)F	0.416
CCCC[n+]1ccn(-c2nc3ccccc3nc2[N-]S(=O)(=O)c2ccccc2)c1	-0.373
COc1cccc2cc(C(=O)N3CCN(C(=O)c4ccco4)CC3)c(=O)oc12	0.0339
Nc1nnc(CC(=O)N/N=C/c2ccc(-c3ccccc3Cl)o2)s1	-0.354
COc1ccc(OC)c(-c2nnc(SCC(=O)N3CCCc4ccccc43)o2)c1	-0.66
CCOc1ccc(NC(=O)CSc2ccc(-c3ccccn3)nn2)cc1	-0.0986
CN(C)CCSc1nnc2[nH]c3ccccc3c2n1	0.0211
COc1cccc(C(=O)Nc2cccc(-c3nnc(-c4ccco4)o3)c2)c1	-1
CCOC(=O)N1CCC(NC(=O)c2ccc3nc4ccccc4c(=O)n3c2)CC1	-0.331
O=C(c1cccs1)N1CCC(c2nc3c(nnn3Cc3ccccc3)c(=O)[nH]2)CC1	-0.092
CN(C)c1ccc(C=C2C(=O)OC(C)(C(C)(C)C)OC2=O)cc1 (stereo not drawn)	1.05
CSC1=N/C(=C\c2ccccc2)C(=O)N1C	-0.0166
CCN1CCN(c2ccc(NC(=O)c3ccc4c(c3)[nH]c(=O)n4Cc3ccc(F)cc3)cc2)CC1	0.0981
